In PMC4242493:
Some of the results follow. The list includes weakly bound sequences.

The sequences below were run against MaxL homodimer (UniProt P61244) (assay: universal protein-binding microarray (PBM)). Details: PBS-based mixture, 10 nM His-tagged protein dimer, 2% milk, 200 ng/uL BSA, 50 ng/uL salmon testes DNA, 0.02% TX-100; detection with Alexa 488 anti-His …; high values mean tight binding; most listed sequences are background and not binding sites; double strand, one strand shown.
UniProt P61244, sequence (P61244 whole entry): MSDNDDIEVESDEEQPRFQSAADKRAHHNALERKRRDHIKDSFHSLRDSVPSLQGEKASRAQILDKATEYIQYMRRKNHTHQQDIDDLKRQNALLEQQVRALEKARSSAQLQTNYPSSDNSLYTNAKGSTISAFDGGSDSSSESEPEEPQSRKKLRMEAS

Row | Sequence | binding signal (normalized occupancy)
1 | CAGCGTAG | 0.0714
2 | AGCGTTAA | 0.0712
3 | AAACAGCA | 0.0759
4 | AGCGCCTA | 0.0724
5 | ACGCTTCG | 0.0784
6 | CTTAGAAA | 0.0689
7 | CAAATCTG | 0.0784
8 | CGGGTAAC | 0.076
9 | ATAAGGTC | 0.0876
10 | CGTGCGTA | 0.0916
11 | AGGGAAAC | 0.0757
12 | GTGCAACA | 0.08
13 | CAGAAACA | 0.0809
14 | TAAGCGTA | 0.073
15 | AAATAAGG | 0.0746
16 | ACGTCACC | 0.0804
17 | GAACTACA | 0.0775
18 | CAGTCTGG | 0.0673
19 | AGCTACGG | 0.0724
20 | AAGGATCG | 0.0776
21 | CGGTAAAG | 0.0763
22 | AGGCGGTA | 0.0713
23 | AGATGCGA | 0.0739
24 | CCTGCCCC | 0.0701
25 | AACGATTC | 0.0776

Row | Sequence | binding signal (normalized occupancy)
26 | TAGGCCAA | 0.0694
27 | TTGCACAA | 0.0749
28 | ATCATTCA | 0.0816
29 | GTCGCAAC | 0.0753
30 | ACAGTGGG | 0.0738
31 | ACGTCTCC | 0.0769
32 | AGGAAGCA | 0.0832
33 | CGAGAATC | 0.0777
34 | AGGACTCA | 0.0729
35 | CACCTCTA | 0.0765
36 | ACCACCCC | 0.0933
37 | GCAGACAC | 0.0738
38 | ACAACTAG | 0.0713
39 | CTTACCCA | 0.0749
40 | GGCCTGTA | 0.073
41 | TAACGAAA | 0.0728
42 | CTTCTATA | 0.0788
43 | AAAGAGAG | 0.0753
44 | CAGACATA | 0.0825
45 | AAGCACGG | 0.0779
46 | AGGTTACT | 0.0732
47 | TCTTATCA | 0.0736
48 | TGCGCAAA | 0.0708
49 | ACTCGAGT | 0.074
50 | GGTAAGCA | 0.0773

Row | Sequence | binding signal (normalized occupancy)
51 | CGTAACAG | 0.0767
52 | CCTCTGGC | 0.0664
53 | AAACAGGA | 0.0726
54 | CGGTTGAA | 0.0733
55 | CAAGACAG | 0.0705
56 | AGAATCCT | 0.0738
57 | GCCACGAA | 0.0728
58 | ATGTGTTC | 0.0899
59 | ATACATTG | 0.0872
60 | ACCTAATC | 0.0736
61 | ACCAAAAA | 0.0707
62 | CCGTGTCC | 0.0754
63 | AGAGCAGC | 0.0753
64 | ATAGAATG | 0.0829
65 | ACTTTAGA | 0.0757
66 | ATAAACAT | 0.0777
67 | GGCGAGCC | 0.0663
68 | GGCTTGAA | 0.0701
69 | GTGCCCCA | 0.0739
70 | AGTCAATA | 0.0711
71 | CGCTTAAG | 0.0676
72 | GCGCAGCA | 0.0701
73 | CATGGGGA | 0.1
74 | GACTAGCC | 0.0707
75 | AGCCTATC | 0.074

Row | Sequence | binding signal (normalized occupancy)
76 | TCGCGCAA | 0.0752
77 | ACAAGCGT | 0.0815
78 | GAGCCGGA | 0.0684
79 | CAACAGGG | 0.0723
80 | ACTATGGA | 0.0798
81 | GTGGCGTA | 0.0786
82 | GGTTTTTA | 0.0791
83 | CATCACCG | 0.0763
84 | CCGGCGGC | 0.0646
85 | TATCTACA | 0.0817
86 | GGCGGCAC | 0.0706
87 | CGGTGGTA | 0.0825
88 | AGAGGGCG | 0.0704
89 | CGCAAAGA | 0.0733
90 | AAGTTAAC | 0.0783
91 | AGACGTTA | 0.0775
92 | CTCTTCGC | 0.0753
93 | GGGTTTAA | 0.078
94 | CAATGGAC | 0.073
95 | ATAACCAA | 0.0794
96 | ATAAAAGA | 0.0759
97 | ACAGCTCT | 0.0692
98 | AATACAAC | 0.0734
99 | ACAGATTA | 0.075
100 | GAATGGGA | 0.0752

Row | Sequence | binding signal (normalized occupancy)
101 | CCAGCACA | 0.084
102 | CTATAACC | 0.0895
103 | ATTTAAAC | 0.0836
104 | GAGTTATC | 0.0757
105 | ATGTAACG | 0.0911
106 | GATAACAA | 0.0782
107 | ACAGATGC | 0.0818
108 | CAAAACCA | 0.075
109 | CCTGCGGC | 0.0694
110 | GCTAAATA | 0.079
111 | CTAACAGC | 0.076
112 | AACATCGT | 0.0844
113 | AGATAATC | 0.0755
114 | CGGAACAG | 0.0673
115 | ATGTGCTA | 0.0849
116 | GTTTCACA | 0.0775
117 | CATCTACA | 0.0833
118 | CCAGCTAC | 0.0747
119 | CGGCTACA | 0.0683
120 | TAAAGCGA | 0.0693
121 | ACAACAAG | 0.081
122 | CTCTCAGA | 0.0746
123 | CGCATGCC | 0.116
124 | GTTCGTTA | 0.0705
125 | AGAGAACA | 0.0716

Row | Sequence | binding signal (normalized occupancy)
126 | ACTGACGA | 0.0719
127 | CGTAGGAA | 0.0856
128 | CGTGAGCA | 0.0782
129 | CATTACGC | 0.0764
130 | GACTCATC | 0.0776
131 | ACCCTATC | 0.0783
132 | ACGATCGT | 0.0678
133 | GTGTCCGA | 0.0717
134 | ATCCGGTG | 0.0777
135 | AAGGACTG | 0.066
136 | AACCGGAT | 0.0726
137 | GTGGACGA | 0.0753
138 | AAGTAAGT | 0.0728
139 | AGGAATAG | 0.0765
140 | CGAAACCG | 0.0686
141 | GATGGCTA | 0.073
142 | GCCCCTCA | 0.0781
143 | CTAGGGGA | 0.0747
144 | ATCCCGAC | 0.0749
145 | AAGGGGTC | 0.0773
146 | ATGAAGAG | 0.0796
147 | GGCGATAC | 0.0716
148 | ACCGTAAG | 0.07
149 | ACATCCCT | 0.0769
150 | CATAGTAG | 0.081

Row | Sequence | binding signal (normalized occupancy)
151 | TGAATGAA | 0.0801
152 | GGACTTCA | 0.0774
153 | CAATGGTC | 0.0779
154 | AATCAGGC | 0.0752
155 | GTGACTTA | 0.0816
156 | CAATAAAC | 0.0734
157 | GCATGCCA | 0.108
158 | CAGTATCA | 0.0858
159 | CGTGTCGC | 0.083
160 | CTCTACGA | 0.0744
161 | AAACCCGC | 0.0756
162 | AAACGACG | 0.0765
163 | ATACTTGA | 0.0771
164 | ATGTTGGC | 0.0836
165 | ACGTGAGA | 0.0981
166 | TATACTGA | 0.0751
167 | ATTGGCAC | 0.0807
168 | AGAGCGCC | 0.0677
169 | TGAGTCCA | 0.0763
170 | GTTGAAAC | 0.0696
171 | GCGCTATA | 0.0753
172 | ATGGGGCC | 0.084
